# Measurements taken from the supplement of paper PMC8728848.
# The list shows a part of the results.
# B1: LecB LY19 (Pseudomonas aeruginosa) (protein)
# chain: MATQGVFTLPANTQFGVTAFANSAGTQTVNVQVNNETVATFTGQSTNNGIIGSKVLNSGGGGKVQILVSVNGRSSDLVSAQVILANELNFALVGSEDSTDNDYNDAVVVINWPLG
# Key:
# Test in all cases: glycan array binding signal (z-score within array); higher = stronger binding
# Details in all cases: glycan notation: IUPAC condensed, linker removed
# [1] = target: Neu5Ac(a2-3)Gal(b1-3)]Neu5Ac(a2-3)Gal(b1-4)]GlcNAc
# Method in brief: (§1)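 Glycan array data were curated from 3228 arrays in the Consortium for Functional Glycomics database and kept only where the protein sequence was available. Glycan names were converted to IUPAC-condensed notation, and columns mapping to the same glycan were averaged. The binding signal is a within-array Z-score, averaged across arrays of the same protein sequence at different concentrations or buffers and across linkers. Negative Z-scores can be read as non-binding.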
# Neu5Ac(a2-3)Gal(b1-4)Glc = target: Neu5Ac(a2-3)Gal(b1-4)Glc
# Method in brief: as §1
# [2] = target: Neu5Ac(a2-3)Gal(b1-4)GlcNAc
# Method in brief: as §1
# [3] = target: Neu5Ac(a2-3)Gal(b1-4)GlcNAc(b1-2)Man
# Method in brief: as §1
# [4] = target: Neu5Ac(a2-3)Gal(b1-4)GlcNAc(b1-2)Man(a1-3)[GlcNAc(b1-4)][Neu5Ac(a2-3)Gal(b1-4)GlcNAc(b1-2)Man(a1-6)]Man(b1-4)GlcNAc(b1-4)GlcNAc
# Method in brief: as §1
# [5] = target: Neu5Ac(a2-3)Gal(b1-4)GlcNAc(b1-2)Man(a1-3)[Neu5Ac(a2-3)Gal(b1-4)GlcNAc(b1-2)Man(a1-6)]Man(b1-4)GlcNAc(b1-4)GlcNAc
# Method in brief: as §1
# [6] = target: Neu5Ac(a2-3)Gal(b1-4)GlcNAc(b1-2)Man(a1-3)[Neu5Ac(a2-3)Gal(b1-4)GlcNAc(b1-2)Man(a1-6)]Man(b1-4)GlcNAc(b1-4)[Fuc(a1-6)]GlcNAc
# Method in brief: as §1
# [7] = target: Neu5Ac(a2-3)Gal(b1-4)GlcNAc(b1-2)Man(a1-3)[Neu5Ac(a2-6)Gal(b1-4)GlcNAc(b1-2)Man(a1-6)]Man(b1-4)GlcNAc(b1-4)GlcNAc
# Method in brief: as §1
# [8] = target: Neu5Ac(a2-3)Gal(b1-4)GlcNAc(b1-2)[Neu5Ac(a2-3)Gal(b1-4)GlcNAc(b1-4)]Man(a1-3)[GlcNAc(b1-4)][Neu5Ac(a2-3)Gal(b1-4)GlcNAc(b1-2)[Neu5Ac(a2-3)Gal(b1-4)GlcNAc(b1-6)]Man(a1-6)]Man(b1-4)GlcNAc(b1-4)GlcNAc
# Method in brief: as §1
# [9] = target: Neu5Ac(a2-3)Gal(b1-4)GlcNAc(b1-2)[Neu5Ac(a2-3)Gal(b1-4)GlcNAc(b1-4)]Man(a1-3)[GlcNAc(b1-4)][Neu5Ac(a2-3)Gal(b1-4)GlcNAc(b1-4)Man(a1-6)]Man(b1-4)GlcNAc(b1-4)GlcNAc
# Method in brief: as §1
# [10] = target: Neu5Ac(a2-3)Gal(b1-4)GlcNAc(b1-2)[Neu5Ac(a2-3)Gal(b1-4)GlcNAc(b1-6)]Man(a1-6)[Neu5Ac(a2-3)Gal(b1-4)GlcNAc(b1-2)Man(a1-3)][GlcNAc(b1-4)]Man(b1-4)GlcNAc(b1-4)GlcNAc
# Method in brief: as §1
# [11] = target: Neu5Ac(a2-3)Gal(b1-4)GlcNAc(b1-3)Gal
# Method in brief: as §1
# [12] = target: Neu5Ac(a2-3)Gal(b1-4)GlcNAc(b1-3)Gal(b1-3)GlcNAc
# Method in brief: as §1
# [13] = target: Neu5Ac(a2-3)Gal(b1-4)GlcNAc(b1-3)Gal(b1-4)GlcNAc
# Method in brief: as §1
# [14] = target: Neu5Ac(a2-3)Gal(b1-4)GlcNAc(b1-3)Gal(b1-4)GlcNAc(b1-2)Man(a1-3)[Neu5Ac(a2-3)Gal(b1-4)GlcNAc(b1-3)Gal(b1-4)GlcNAc(b1-2)Man(a1-6)]Man(b1-4)GlcNAc(b1-4)GlcNAc
# Method in brief: as §1
# [15] = target: Neu5Ac(a2-3)Gal(b1-4)GlcNAc(b1-3)Gal(b1-4)GlcNAc(b1-3)Gal(b1-4)GlcNAc
# Method in brief: as §1
# [16] = target: Neu5Ac(a2-3)Gal(b1-4)GlcNAc(b1-3)Gal(b1-4)GlcNAc(b1-3)Gal(b1-4)GlcNAc(b1-2)Man(a1-3)[Neu5Ac(a2-3)Gal(b1-4)GlcNAc(b1-3)Gal(b1-4)GlcNAc(b1-3)Gal(b1-4)GlcNAc(b1-2)Man(a1-6)]GalNAc
# Method in brief: as §1
# [17] = target: Neu5Ac(a2-3)Gal(b1-4)GlcNAc(b1-3)Gal(b1-4)GlcNAc(b1-3)GalNAc
# Method in brief: as §1
# [18] = target: Neu5Ac(a2-3)Gal(b1-4)GlcNAc(b1-3)Gal(b1-4)GlcNAc(b1-3)[Neu5Ac(a2-3)Gal(b1-4)GlcNAc(b1-3)Gal(b1-4)GlcNAc(b1-6)]GalNAc
# Method in brief: as §1
# [19] = target: Neu5Ac(a2-3)Gal(b1-4)GlcNAc(b1-3)Gal(b1-4)GlcNAc(b1-6)[Gal(b1-3)]GalNAc
# Method in brief: as §1
# [20] = target: Neu5Ac(a2-3)Gal(b1-4)GlcNAc(b1-3)Gal(b1-4)[Fuc(a1-3)]GlcNAc
# Method in brief: as §1
# [21] = target: Neu5Ac(a2-3)Gal(b1-4)GlcNAc(b1-3)GalNAc
# Method in brief: as §1
# [22] = target: Neu5Ac(a2-3)Gal(b1-4)GlcNAc(b1-3)[Neu5Ac(a2-3)Gal(b1-4)GlcNAc(b1-6)]GalNAc
# Method in brief: as §1
# [23] = target: Neu5Ac(a2-3)Gal(b1-4)GlcNAc(b1-6)GalNAc
# Method in brief: as §1
# [24] = target: Neu5Ac(a2-3)Gal(b1-4)GlcNAc(b1-6)[Gal(b1-3)]GalNAc
# Method in brief: as §1
# [25] = target: Neu5Ac(a2-3)Gal(b1-4)GlcNAc(b1-6)[Neu5Ac(a2-3)Gal(b1-3)]GalNAc
# Method in brief: as §1
# [26] = target: Neu5Ac(a2-3)Gal(b1-4)GlcNAc6S
# Method in brief: as §1
# [27] = target: Neu5Ac(a2-3)Gal(b1-4)[Fuc(a1-3)]GlcNAc
# Method in brief: as §1
# [28] = target: Neu5Ac(a2-3)Gal(b1-4)[Fuc(a1-3)]GlcNAc(b1-2)Man
# Method in brief: as §1
# [29] = target: Neu5Ac(a2-3)Gal(b1-4)[Fuc(a1-3)]GlcNAc(b1-3)Gal
# Method in brief: as §1
# [30] = target: Neu5Ac(a2-3)Gal(b1-4)[Fuc(a1-3)]GlcNAc(b1-3)Gal(b1-4)GlcNAc
# Method in brief: as §1
# [31] = target: Neu5Ac(a2-3)Gal(b1-4)[Fuc(a1-3)]GlcNAc(b1-3)Gal(b1-4)[Fuc(a1-3)]GlcNAc(b1-3)Gal(b1-4)[Fuc(a1-3)]GlcNAc
# Method in brief: as §1
# [32] = target: Neu5Ac(a2-3)Gal(b1-4)[Fuc(a1-3)]GlcNAc(b1-3)GalNAc
# Method in brief: as §1
# [33] = target: Neu5Ac(a2-3)Gal(b1-4)[Fuc(a1-3)]GlcNAc(b1-6)[Gal(b1-3)]GalNAc
# Method in brief: as §1
# [34] = target: Neu5Ac(a2-3)Gal(b1-4)[Fuc(a1-3)]GlcNAc(b1-6)[Neu5Ac(a2-3)Gal(b1-3)]GalNAc
# Method in brief: as §1
# [35] = target: Neu5Ac(a2-3)Gal(b1-4)[Fuc(a1-3)]GlcNAc6S
# Method in brief: as §1
# [36] = target: Neu5Ac(a2-3)Gal6S(b1-4)GlcNAc
# Method in brief: as §1
# [37] = target: Neu5Ac(a2-3)Gal6S(b1-4)[Fuc(a1-3)]GlcNAc
# Method in brief: as §1
binder,measurement,setting,value
B1,glycan array binding signal (z-score),[1],-0.542
same,glycan array binding signal (z-score),Neu5Ac(a2-3)Gal(b1-4)Glc,-0.516
same,glycan array binding signal (z-score),[2],-0.555
same,glycan array binding signal (z-score),[3],-0.515
same,glycan array binding signal (z-score),[4],-0.548
same,glycan array binding signal (z-score),[5],-0.558
same,glycan array binding signal (z-score),[6],0.326
same,glycan array binding signal (z-score),[7],-0.393
same,glycan array binding signal (z-score),[8],-0.555
same,glycan array binding signal (z-score),[9],-0.555
same,glycan array binding signal (z-score),[10],-0.55
same,glycan array binding signal (z-score),[11],-0.006
same,glycan array binding signal (z-score),[12],-0.556
same,glycan array binding signal (z-score),[13],-0.547
same,glycan array binding signal (z-score),[14],-0.522
same,glycan array binding signal (z-score),[15],-0.557
same,glycan array binding signal (z-score),[16],-0.272
same,glycan array binding signal (z-score),[17],-0.542
same,glycan array binding signal (z-score),[18],-0.54
same,glycan array binding signal (z-score),[19],-0.554
same,glycan array binding signal (z-score),[20],-0.545
same,glycan array binding signal (z-score),[21],1.14
same,glycan array binding signal (z-score),[22],-0.555
same,glycan array binding signal (z-score),[23],-0.547
same,glycan array binding signal (z-score),[24],-0.147
same,glycan array binding signal (z-score),[25],-0.547
same,glycan array binding signal (z-score),[26],-0.551
same,glycan array binding signal (z-score),[27],0.924
same,glycan array binding signal (z-score),[28],0.728
same,glycan array binding signal (z-score),[29],1.88
same,glycan array binding signal (z-score),[30],1.52
same,glycan array binding signal (z-score),[31],2.27
same,glycan array binding signal (z-score),[32],-0.21
same,glycan array binding signal (z-score),[33],-0.284
same,glycan array binding signal (z-score),[34],-0.307
same,glycan array binding signal (z-score),[35],0.644
same,glycan array binding signal (z-score),[36],1.06
same,glycan array binding signal (z-score),[37],0.586
